{
  "source": "paper PMC4759522",
  "about": "“A fragment merging approach towards the development of small molecule inhibitors of Mycobacterium tuberculosis EthR for use as ethionamide boosters” (Organic & Biomolecular Chemistry, 2016)",
  "origin": "cited, not measured here",
  "test_system": "M. tuberculosis infected macrophages",
  "design": "method as in PMID 24313835",
  "conditions": "reported previously; cited from earlier work",
  "data": [
    {"smiles": "O=C(CCC1CCCC1)N1CCCC1", "note": "[Compound 1]", "values": [
      {"measurement": "ability to boost ethionamide", "result": "boost ethionamide"}
    ]}
  ]
}
